# Among all 310,000 compounds or so, about 2,200 (0.71%) showed an effect of 50% or more. The effect is printed as a negative number. Some of the results follow.
# Molecular target: human ether-à-go-go-related gene (hERG) potassium channel (human, UniProt Q12809)
# Assay: primary screen, population patch clamp on CHO cells stably expressing hERG
# Sequence of human ether-à-go-go-related gene (hERG) potassium channel (Q12809 whole entry, looked up): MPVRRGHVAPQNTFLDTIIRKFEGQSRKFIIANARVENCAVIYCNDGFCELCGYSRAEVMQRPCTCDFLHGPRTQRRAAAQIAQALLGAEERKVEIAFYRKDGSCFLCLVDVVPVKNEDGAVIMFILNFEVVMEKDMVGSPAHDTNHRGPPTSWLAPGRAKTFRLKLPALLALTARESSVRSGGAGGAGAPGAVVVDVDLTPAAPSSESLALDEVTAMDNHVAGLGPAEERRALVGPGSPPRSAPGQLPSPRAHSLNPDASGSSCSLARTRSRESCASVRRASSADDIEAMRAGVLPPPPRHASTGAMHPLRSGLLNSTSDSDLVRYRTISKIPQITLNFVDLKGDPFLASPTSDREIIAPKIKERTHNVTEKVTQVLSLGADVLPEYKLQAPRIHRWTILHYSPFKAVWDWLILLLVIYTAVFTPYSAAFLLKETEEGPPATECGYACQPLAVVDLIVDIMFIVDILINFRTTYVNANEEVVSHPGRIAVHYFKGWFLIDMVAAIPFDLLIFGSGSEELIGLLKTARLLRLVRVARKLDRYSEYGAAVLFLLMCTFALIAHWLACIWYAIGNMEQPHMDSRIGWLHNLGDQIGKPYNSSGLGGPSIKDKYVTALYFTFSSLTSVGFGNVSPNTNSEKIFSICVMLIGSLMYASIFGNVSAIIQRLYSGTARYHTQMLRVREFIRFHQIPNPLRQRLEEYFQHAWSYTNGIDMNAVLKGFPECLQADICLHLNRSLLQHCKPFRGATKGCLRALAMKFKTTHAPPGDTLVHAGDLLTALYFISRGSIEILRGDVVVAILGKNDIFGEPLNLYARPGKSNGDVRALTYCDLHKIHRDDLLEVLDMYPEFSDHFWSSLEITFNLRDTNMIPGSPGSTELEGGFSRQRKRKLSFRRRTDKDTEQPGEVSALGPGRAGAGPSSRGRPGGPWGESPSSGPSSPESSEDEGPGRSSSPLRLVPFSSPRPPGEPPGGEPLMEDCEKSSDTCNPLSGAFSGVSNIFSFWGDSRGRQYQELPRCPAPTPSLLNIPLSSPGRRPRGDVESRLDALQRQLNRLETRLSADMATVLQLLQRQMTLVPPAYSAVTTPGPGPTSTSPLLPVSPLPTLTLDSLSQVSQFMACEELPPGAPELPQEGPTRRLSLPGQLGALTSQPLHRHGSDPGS
row,SMILES,"hERG current change (%, negative = inhibition) at 1uM [%]"
1,CC(C)NC(=O)CCNC(=O)c1ccc(F)cc1,5.11
2,O=c1c2ccccc2[nH]c(=S)n1CCCn1ccnc1,11.1
3,CC(C)=CCN1CCN(C/C(Cl)=C/c2ccccc2)CC1CCO (stereo not drawn),8.56
4,CCN1CCN(C(c2cccs2)C(C)NC(=O)C(=O)N2CCCCC2)CC1 (stereo not drawn),14.5
5,Cc1ccc(S(=O)(=O)N(C)C)cc1NC(=O)C1CCCC1,2.29
6,CCOc1ccccc1N1CCN(Cc2ccc(Br)s2)CC1,2.99
7,CC1CCCN(C(=O)c2ccc([N+](=O)[O-])o2)C1 (stereo not drawn),0.365
8,O=C(O)C1C2CCC(O2)C1C(=O)Nc1ccc(F)c(F)c1 (stereo not drawn),20.1
9,Cc1ccc(-n2nc3c(c2NC(=O)c2ccc(Br)o2)CSC3)c(C)c1,-0.97
10,O=C(CCCCCN1C(=O)c2cccc3cccc(c23)C1=O)NC1CCS(=O)(=O)C1 (stereo not drawn),7.49
11,NNC(=O)CSc1nc(-c2ccccc2)nc2c1CCCC2,7.49
12,CC(=O)Nc1ccc(Nc2cc(N3CCOCC3)c3nonc3c2[N+](=O)[O-])cc1,6.96
13,CCOCCCn1c(=NC(=O)c2cccnc2)c(C(=O)OCC)cc2c(=O)n3ccccc3nc21,-67.8
14,O=C(NCCNC(=O)c1ccccc1[N+](=O)[O-])c1ccccc1[N+](=O)[O-],16.6
15,Cc1cc(NS(=O)(=O)c2ccc(NS(=O)(=O)c3ccc(CC(C)C)cc3)cc2)nc(C)n1,21.3
16,CCn1cc(C(=O)O)c(=O)c2cc3c(cc21)OCO3,17.5
17,Cn1c(SCC(=O)c2ccc3c(c2)OCCO3)nnc1C(F)(F)F,4.9
18,Cc1cccc(N(CC(=O)NC2CCCCC2)C(=O)Cn2nnc(-c3ccc(C)o3)n2)c1,14.3
19,CN(C)n1cccc1/C=C(\C#N)S(=O)(=O)c1ccc(Cl)cc1,14
20,CC(C)CCNC(=O)C(c1ccncc1)N(C(=O)Cn1nnc(-c2ccc(F)cc2)n1)c1ccccc1F (stereo not drawn),0.123
21,Cc1ccc(S(=O)(=O)/C(C#N)=C/c2c(N3CCN(Cc4ccccc4)CC3)nc3ccccn3c2=O)cc1,11
22,COc1cc(OC)c(C2Nc3ccccc3NC3=C2C(=O)CC(C)(C)C3)cc1OC (stereo not drawn),13.8

row,SMILES,"hERG current change (%, negative = inhibition) at 1uM [%]"
1,Cc1ccccc1NC1=NS(=O)(=O)c2ccccc21,7.81
2,O=C(/C=C/c1ccccc1)NC(=O)c1ccccc1O,10.3
3,CCOc1cc(C2NC(=O)NC(c3ccccc3)=C2C(=O)c2ccccc2)c(Br)cc1OCC(=O)O (stereo not drawn),9.03
4,Cc1ccc(-n2nnnc2CSc2nnc(-c3ccc(O)cc3)o2)cc1,0.75
5,CC(CN1CCN(C)CC1)OC(=O)c1ccc(F)cc1.Cl (stereo not drawn),4.96
6,CCCCCC(=O)Nc1cccc(C2=NOC3(C2)C[C@H](C(N)=O)N(C(=O)c2ccccc2)C3)c1 (stereo partly drawn),11.2
7,CC(C)(C)c1ccc(CS(=O)(=O)CC(O)CN2CCCC2=O)cc1 (stereo not drawn),16
8,Cl.c1ccc2c(c1)oc1c(NCCN3CCOCC3)ncnc12,7.6
9,Cn1c(CC2C(=O)Nc3ccc(Br)cc32)nc2ccccc2c1=O (stereo not drawn),8.92
10,Cc1c(C)c2ccc(OCC(=O)NCCCn3ccnc3)c(C)c2oc1=O,-11.1
11,COC(=O)Cc1csc(Nc2ccc(Cl)cc2)n1,14.2
12,O=C(COc1ccc(S(=O)(=O)N2CCOCC2)cc1)NC1CCCCC1,21.3
13,CCN(CC)CCCC(C)NC(=O)c1cccc(S(=O)(=O)N2CCc3ccccc32)c1.Cl (stereo not drawn),-2.88
14,CC(C)CC(=O)Nc1c2c(nn1-c1ccc(F)cc1)CSC2,11.5
15,CC(C)n1c(NCCO)nc2ccccc21,12
16,CCO[C@@H]1OC(C(=O)NCc2ccccc2)=C[C@H](C)[C@H]1CCCO,5.75
17,Cc1ccc(-n2nc3c(N4CCC(C(=O)NCc5ccc(C)o5)CC4)nnc(C)c3c2C)cc1,12
18,CC(C)(C)NC(=O)C(c1cccs1)N(CC1CCCO1)C(=O)Cn1nnc(-c2cccs2)n1 (stereo not drawn),6.19
19,Cc1ccccc1C(=O)N1CCC(C(=O)Nc2ccc(S(=O)(=O)N3CCCC3)cc2)CC1,5.5
20,C#CCOc1ccc2c(C)cc(=O)oc2c1,9.48
21,COc1cc(NC(=O)CN2C(=O)C(=O)N(C3CCCC3)C2=O)cc(OC)c1,15.7
22,CCC(CC)C(=O)Nc1cccc(-c2nc3ccccc3o2)c1,9.45

row,SMILES,"hERG current change (%, negative = inhibition) at 1uM [%]"
1,COc1cccc(N2CC(NS(=O)(=O)c3cccnc3)CC2=O)c1 (stereo not drawn),7
2,O=C(c1nc2ccc(Cl)cn2c1CNCC[C@@H]1C[C@@H]2C=C[C@H]1C2)N1CCCCCCC1,11.2
3,O=C(C[n+]1cccc(/C=N/O)c1)N(Cc1ccccc1)Cc1ccccc1.[Cl-],7.9
4,COc1cc(OC)cc(C(=O)Nc2ccccc2S(=O)(=O)N2CCCC2OC(C)=O)c1 (stereo not drawn),8.15
5,Cc1cccc(NC(=O)CSc2nnnn2C)n1,12.6
6,CC(Oc1ccc(F)cc1)C(O)CCN(C)C (stereo not drawn),12.9
7,O=C(/C=C/c1ccc([N+](=O)[O-])cc1)NCc1ccccn1,-10.1
8,O=S(=O)(NCc1ccccn1)c1ccc(Cl)s1,13.4
9,COc1ccc(CN(CC(=O)NCc2ccccc2)C(=O)c2csnn2)cc1,6.04
10,Cc1ccc(NC(=O)Cn2cc(S(=O)(=O)c3ccccc3)c(=O)c3cc(F)ccc32)cc1,-1.65
11,N#CCCN1CCN(Cc2cc(-c3ccccc3)ccc2O)CC1,2.43
12,COc1ccc(N(C)C(=O)c2cnc(N3CCN(c4ncccn4)CC3)c3ccccc23)cc1,12.9
13,CC[C@@H](C)[C@H](NC(=O)Cc1c(C)c2cc3c(C)c(C)oc3c(C)c2oc1=O)C(=O)O,13.1
14,Cc1sc2nc3n(c(=O)c2c1C)CCCCC3,7.1
15,CC(C)CNC(=O)COC(=O)C1c2ccccc2Oc2ccccc21,2.68
16,COc1cc(/C=C2\SC(=S)N(NC(=O)c3cccnc3)C2=O)ccc1O,12.6
17,CC(C(=O)Nc1nccs1)c1ccc([N+](=O)[O-])cc1 (stereo not drawn),-9.36
18,CCCCN(C)C(=O)c1cc2cc3ccc(OC)cc3nc2s1,15.5
19,CCOC(=O)C1=C(C)NC(=O)NC1c1cccs1 (stereo not drawn),13.3
20,CCN(C(=O)CSc1nc2ccccc2c(=O)n1C(C)COC)C1CCS(=O)(=O)C1 (stereo not drawn),2.14
21,Cc1ccc(S(=O)(=O)CCC(=O)NCCC2=CCCCC2)cc1,0.671
22,O=C(CN(Cc1ccccc1Cl)C(=O)CNS(=O)(=O)c1ccccc1)NCC1CCCO1 (stereo not drawn),18.5

row,SMILES,"hERG current change (%, negative = inhibition) at 1uM [%]"
1,COc1ncnc2c1ncn2CC1COC(C)(C)O1 (stereo not drawn),15.2
2,Oc1cccc2c(NC(=S)Nc3ccc(SC(F)F)cc3)cccc12,12.9
3,O=C(Nc1cc(C(=O)Nc2ccccc2C(=O)O)cc(C(=O)Nc2ccccc2C(=O)O)c1)c1ccccc1,-8.18
4,Cc1ccc(Oc2nc(-c3ccccn3)nc3ccccc23)cc1,8.23
5,Fc1ccc(N2CCN(Cc3c[nH]c4ccccc34)CC2)cc1,-26.6
6,COc1cccc(C2CC(c3ccc(Cl)cc3Cl)n3nc(N)nc3N2)c1 (stereo not drawn),3.69
7,O=C1CSC(c2ccc([N+](=O)[O-])cc2)N1c1ccc(O)cc1 (stereo not drawn),16.6
8,Cc1nc2scc(C)n2c(=O)c1S(=O)(=O)NCC1CCN(Cc2ccc(F)cc2)CC1,-15.6
9,O=C(NC1CCS(=O)(=O)C1)c1cccc(Cl)c1 (stereo not drawn),6.44
10,CC(C)NS(=O)(=O)c1cc(F)ccc1CN1C(=O)c2cccnc2C1=O,-1.72
11,O=C(CCc1nnc(CCCCc2ccccc2)o1)NCCc1cccnc1,1.52
12,COc1ccc2cc(CCNC(=O)c3ccc(Br)o3)c(=O)[nH]c2c1,7.86
13,CC(C)N(Cc1nc(-c2ccccc2)no1)C(=O)Cc1ccccc1,11.8
14,Cc1ccc(C(=O)/C=C/c2cn(CC(O)CN3CCOCC3)c3ccccc23)cc1 (stereo not drawn),15.3
15,CCOc1ccc(S(=O)(=O)N2CCC(c3ccccc3)CC2)cc1C(=O)O,25
16,COc1cccc(C(=O)NNC(=O)c2sccc2-n2cccc2)c1,13.4
17,COc1ccc(C2CC(=O)C3=C(C2)Nc2ccccc2N(C(C)=O)C3c2ccco2)cc1 (stereo not drawn),3.21
18,COC(=O)c1ccc(CN2CCN(C3CCCCC3)C(CCO)C2)cc1 (stereo not drawn),-3.89
19,CN(C)c1c([N+](=O)[O-])cc2[nH]c(=O)[nH]c2c1[N+](=O)[O-],8.21
20,Cc1cc(-n2nc3ccccc3n2)c(O)c([N+](=O)[O-])c1,10.4
21,COCCCN1C(=O)C(=O)/C(=C(/O)c2ccc(OC)cc2)C12C(=O)N(C)c1ccccc12 (stereo not drawn),9.11

# Reference: paper PMC4336329 (PLoS ONE, 2015)
